Screen size: about 310,000 compounds; about 2,200 (0.71%) showed an effect of 50% or more. Effects have a minus sign here. Some of the results follow.
Target: human ether-à-go-go-related gene (hERG) potassium channel (human, UniProt Q12809)
Assay: primary screen, population patch clamp on CHO cells stably expressing hERG

human ether-à-go-go-related gene (hERG) potassium channel, sequence (Q12809 whole entry, looked up): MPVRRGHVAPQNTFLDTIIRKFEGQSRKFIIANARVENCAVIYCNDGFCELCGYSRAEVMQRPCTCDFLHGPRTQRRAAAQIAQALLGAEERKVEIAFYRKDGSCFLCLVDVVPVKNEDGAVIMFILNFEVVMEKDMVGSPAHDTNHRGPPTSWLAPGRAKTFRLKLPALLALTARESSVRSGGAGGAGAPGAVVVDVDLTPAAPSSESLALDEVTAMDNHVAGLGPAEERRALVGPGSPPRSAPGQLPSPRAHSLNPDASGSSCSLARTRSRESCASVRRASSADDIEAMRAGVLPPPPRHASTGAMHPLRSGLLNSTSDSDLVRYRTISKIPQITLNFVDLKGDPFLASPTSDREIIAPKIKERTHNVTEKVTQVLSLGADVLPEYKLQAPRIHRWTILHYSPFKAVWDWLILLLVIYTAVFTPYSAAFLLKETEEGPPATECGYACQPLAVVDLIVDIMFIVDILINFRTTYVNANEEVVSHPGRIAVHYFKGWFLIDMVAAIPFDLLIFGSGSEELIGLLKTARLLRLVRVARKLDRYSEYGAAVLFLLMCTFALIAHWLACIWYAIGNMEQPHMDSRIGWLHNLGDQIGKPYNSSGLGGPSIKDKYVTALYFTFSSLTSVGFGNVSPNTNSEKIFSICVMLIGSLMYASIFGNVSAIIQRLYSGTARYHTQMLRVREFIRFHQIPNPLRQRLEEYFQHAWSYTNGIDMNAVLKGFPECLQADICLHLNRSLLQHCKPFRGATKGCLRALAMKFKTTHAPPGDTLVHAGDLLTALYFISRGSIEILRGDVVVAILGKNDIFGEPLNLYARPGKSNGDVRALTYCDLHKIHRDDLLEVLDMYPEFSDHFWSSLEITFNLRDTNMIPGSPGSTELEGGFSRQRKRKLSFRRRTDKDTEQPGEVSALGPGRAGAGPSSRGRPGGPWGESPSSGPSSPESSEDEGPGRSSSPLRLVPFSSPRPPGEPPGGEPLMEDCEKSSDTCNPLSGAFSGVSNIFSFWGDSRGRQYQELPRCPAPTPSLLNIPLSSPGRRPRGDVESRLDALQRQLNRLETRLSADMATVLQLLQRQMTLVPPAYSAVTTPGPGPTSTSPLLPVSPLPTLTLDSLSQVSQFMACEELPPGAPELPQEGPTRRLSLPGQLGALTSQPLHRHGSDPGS

Row | SMILES | hERG current change (%, negative = inhibition) at 1uM
1 | O=C(O)CONC(=O)c1cc(OCC(F)(F)F)ccc1OCC(F)(F)F | 14.3%
2 | CNC(=S)NNS(=O)(=O)c1ccc(OC)cc1OC | 15.5%
3 | CCn1cc(C2=NC(C(C)C)CO2)c2ccccc21 (centres unmarked) | 7.95%
4 | Cc1nn(C)c(C(=O)N/N=C/c2ccc(-c3ccccc3)cc2)c1Cl | 13.3%
5 | COc1cccc(Oc2nc(N)ncc2[N+](=O)[O-])c1 | 11.6%
6 | Cc1nnc(SCC(=O)Nc2nc3c(s2)CC(C)CC3)s1 (centres unmarked) | 4.44%
7 | O=C(c1ccccc1)N1CCN(c2ccc([N+](=O)[O-])c(N3CCOCC3)c2)CC1 | 3.63%
8 | Cc1cc([N+](=O)[O-])nn1CCCC(=O)NC1CCCCC1 | 5.71%
9 | O=C(c1ccc(CS(=O)Cc2cccc(Cl)c2)o1)N1CCN(C2CCCCC2)CC1 (centres unmarked) | 7.94%
10 | O=C(CC1NCCc2ccccc21)Nc1cccc(Cl)c1 (centres unmarked) | 7.46%
11 | CCCCCOC(=O)NCC(O)c1ccccc1 (centres unmarked) | 18.5%
12 | COC(=O)c1ccccc1NC(=O)CS(=O)(=O)Cc1nc(-c2ccc(C)cc2)oc1C | 18.5%
13 | C=CCn1c(-c2cccc(OC)c2)nc2nc3ccccc3nc21 | 13.5%
14 | Cc1ccc(C)c(C(=O)COC(=O)c2ccccc2N2C(=O)C3C4CCC(C4)C3C2=O)c1 (centres unmarked) | 10.2%
15 | C=CCOc1c(Br)cc(CNc2nccs2)cc1OC | 11.7%
16 | Cc1cc2oc(C(=O)NC3CCS(=O)(=O)C3)c(C)c2cc1C (centres unmarked) | 8.53%
17 | COc1ccc(CC(=O)Oc2ccccc2C)cc1S(=O)(=O)N1CCOCC1 | 0.64%
18 | COCCOC(=O)C1=C(C)Nc2nc(C)nn2C1c1ccccc1 (centres unmarked) | 16.1%
19 | Cc1cccc(NC(=O)CSCC(=O)Nc2ccccc2N2CCCC2)c1 | -45.8%
20 | O=C(CSc1nc2ccccc2o1)NCCOc1ccccc1 | 13.2%
21 | COc1ccc(/C=C(\NC(=O)c2ccccc2)C(=O)N2CCCCC2)cc1OC | 14%
22 | Cc1ccc(CC(=O)O/N=C(\N)Cc2ccc([N+](=O)[O-])cc2)cc1 | 6.73%
23 | COc1ccc(NC(=O)[C@@H]2CC=C[C@@H]3CCN(C4CCCCC4)C(=O)[C@@H]32)cc1 | 11.5%

Row | SMILES | hERG current change (%, negative = inhibition) at 1uM
24 | CCOC(=O)C1CCCN(C2=NC(=O)/C(=C/c3ccc(OC)c(OC)c3)S2)C1 (centres unmarked) | 10.2%
25 | Cc1ccc(S(=O)(=O)N2C=CC(C(F)(F)F)=NCC2)cc1 | 17.3%
26 | COc1ccc(N2C(=O)CC(NNc3nc4ccccc4s3)C2=O)cc1 (centres unmarked) | 16.6%
27 | COc1ccc(C2OC34CCCCC3C(C#N)(C#N)C2(C#N)C(=N)O4)cc1 (centres unmarked) | -0.882%
28 | Cc1ccc(CS(=O)Cc2ccc(C(=O)NCc3ccc4c(c3)OCO4)o2)cc1 (centres unmarked) | 7.66%
29 | Cc1nnc(SCCCn2c(N3CCN(c4ccccc4)CC3)nc3c2c(=O)[nH]c(=O)n3C)s1 | -0.698%
30 | CC(C)CN(C)Cc1c(C(=O)N2CCc3ccccc3C2)nc2ccc(Cl)cn12 | -0.0627%
31 | COc1ccccc1CN(CC(=O)NCc1ccc(F)cc1)C(=O)c1csnn1 | 1.78%
32 | CNS(=O)(=O)c1cccc(C(=O)OCC(=O)C23CC4CC(CC(C4)C2)C3)c1 | 6.16%
33 | O=C(NNC(=O)c1cc2ccccc2cc1O)Nc1ccc(Br)cc1 | 8.9%
34 | COc1ccc(NC(=O)/C(C#N)=C\c2ccc(N3CCOCC3)o2)cc1 | 17.2%
35 | CCCCCCNc1cc2n(c(=O)n1)CCc1cc(OC)c(OC)cc1-2 | 2.03%
36 | CCCCCCC(Cl)(Cn1ccnc1)c1ccccc1.O=[N+]([O-])O (centres unmarked) | 1.75%
37 | CCC(Cc1ccccc1)NC(=O)Cn1cccc1C(=O)c1ccccc1 (centres unmarked) | 9.63%
38 | Cc1ccc2c(c1)NC(=O)C(CC(=O)N(C)Cc1ccccc1)O2 (centres unmarked) | 7.42%
39 | N#C/C(=C(/O)c1cccs1)c1nc2ccccc2[nH]1 | 16.4%
40 | CCc1ccc(OCCOC(=O)Nc2ccccc2)cc1 | 12.2%
41 | CN(c1ccccc1)c1nc(N)c([N+](=O)[O-])c(NC2CCCCC2)n1 | 13.7%
42 | CCOC(=O)c1cc2c(N)c(C(=O)c3cc(C#N)c(SC)nc3C)sc2nc1C | -0.0773%
43 | CC(C)(C)N=Cc1c(O)ccc2oc3c(c12)CCCC3 | 28.6%
44 | CCC(=O)N(CCc1ccccc1C)Cc1cc2cc3c(cc2[nH]c1=O)OCO3 | 2.78%
45 | Clc1ccccc1Cn1nnc2c(N3CCCC3)ncnc21 | 8.3%
46 | O=C(Cn1cnc2ccccc2c1=O)Nc1cccc(-c2nnc3n2CCCCC3)c1 | 10.7%

Row | SMILES | hERG current change (%, negative = inhibition) at 1uM
47 | O=C(N(c1ccccc1)c1ccccc1)n1ccnc1 | -12.5%
48 | COc1cccc(NC(=O)CS(=O)(=O)c2cn(CC(=O)N3CCOCC3)c3ccccc23)c1 | 9.9%
49 | Cc1ccc(Nc2nc3ccccc3c(=O)s2)cc1C | 11%
50 | COc1ccc(/C=C2/C(=O)N(c3nc4ccccc4s3)N=C2CSc2ccc(Cl)cc2)cc1 | 6.32%
51 | O=C(O)CCN1CCN(S(=O)(=O)c2ccc3ccccc3c2)CC1 | 14.6%
52 | CC(=O)NC1(C(F)(F)F)N=C(c2ccccc2)NC1=O (centres unmarked) | 4.98%
53 | COc1ccc(C)cc1S(=O)(=O)N(C)CC(=O)Nc1ccccc1 | 9.02%
54 | CCNc1ccc(Br)cc(C(=O)/C=C/c2ccccc2Cl)c1=O | 0.741%
55 | O=C(CSc1ncccc1-c1nc2ccccc2[nH]1)NC1CC1 | -0.103%
56 | c1ccc(C(c2ccccc2)c2noc(CN3CCN(C4CCCC4)CC3)n2)cc1 | 0.0934%
57 | CP(C)(=O)CCC(=O)O | 10%
58 | CC(=O)NC(=S)Nc1cc(C(F)(F)F)ccc1N1CCOCC1 | -12.6%
59 | Cc1ccc(Sc2cc(C)nc(-c3ccccn3)n2)cc1 | 12.1%
60 | Cc1nn(-c2ccccc2)c(Cl)c1C(=O)OC(C)C(=O)Nc1ccc2c(c1)OCO2 (centres unmarked) | 8.84%
61 | Cc1ccc2c(c1)sc(-c1ccc(N(C)C)cc1)[n+]2C.[I-] | -18%
62 | CCc1cccc(C)c1NC(=O)Nc1c(Br)cnn1C | 14%
63 | O=C(CSc1nnc(C2CC2)n1CC1CCCO1)Nc1ccccc1Cl (centres unmarked) | 14.3%
64 | CCc1nnc(NC(=O)c2cccc(S(=O)(=O)N3CCCCC3)c2)s1 | 16.6%
65 | O=c1[nH]c2cc3c(cc2cc1CN(CCN1CCOCC1)C(=S)NCC1CCCO1)OCO3 (centres unmarked) | -0.702%
66 | O=C(O)CNC(=O)c1ccc(NC(=O)/C(=C/c2ccccc2)NC(=O)c2ccccc2Br)cc1 | 16.1%
67 | COc1ccc(N2CCN(C(=O)c3csc4ccccc34)CC2)cc1 | -0.689%
68 | O=C(CSc1nc2ccccc2c2c1CCCC2)N1CCOCC1 | 8.2%
69 | Cc1ccc(CNC(=O)c2nnn(CC(=O)Nc3cc(C)cc(C)c3)c2N)cc1 | 5.99%

Row | SMILES | hERG current change (%, negative = inhibition) at 1uM
70 | COc1ccc(C2=NS(=O)(=O)N(C)C(C(=O)Nc3ccc(C)cc3)=C2)cc1 | 8.9%
71 | CCCN(CC1COc2ccccc2O1)C(=S)Nc1ccc(C)cc1 (centres unmarked) | 12.1%
72 | CC(C)c1nc(=S)c2ccccc2[nH]1 | -0.563%
73 | Cc1ccc(Cn2nnc3c(=O)[nH]c(C(=O)NCc4ccco4)nc32)cc1 | -5.8%
74 | CCn1c(SCC(=O)N2c3ccccc3Sc3ccccc32)nnc1-c1ccco1 | 5.06%
75 | O=C(Nc1ccccc1)N1CCCN(Cc2ccccc2F)C1 | 6.24%
76 | CCOC(=O)N(C)S(=O)(=O)c1ccccc1[N+](=O)[O-] | 5.45%
77 | O=C(COC(=O)c1ccc2c(c1Cl)C(=O)c1ccccc1C2=O)NC1CCCCC1 | 10.3%
78 | Cc1cccc(-n2c(N)cc(=O)nc2SCC(=O)Nc2cc(C)on2)c1 | 5.62%
79 | COc1ccc(C(=O)N/C(=C\c2cn(C)c3ccccc23)C(=O)OCCN(C)C)cc1 | 4.2%
80 | O=C(CCCn1cncn1)N1CCCC(Nc2ccc(F)cc2)C1 (centres unmarked) | 12.7%
81 | CC(O)CSc1nc2c(c(=O)n(C)c(=O)n2C)n1CCCc1ccccc1 (centres unmarked) | 2.29%
82 | Cc1ccc(C(=O)N/C(=C\c2ccco2)C(=O)NCCCn2ccnc2)cc1 | -64.1%
83 | CSc1sc(-c2n[nH]c(=S)n2C)c2c1C=CCC2 | 3.94%
84 | Cc1ccc(NC(=S)NC2CC3CCCC(C2)N3Cc2cccs2)cc1 (centres unmarked) | -18.2%
85 | CCC(=O)Nc1ccc(S(=O)(=O)Nc2c(C)nc3nc[nH]n3c2=O)cc1 | 8.32%
86 | CCCCN(C(=S)Nc1cccc(C)c1C)c1c(N)n(CCC)c(=O)[nH]c1=O | 7.35%
87 | O=C(CCCCCn1c(=S)[nH]c2cc3c(cc2c1=O)OCO3)N1CCN(C2CCCCC2)CC1 | 17.1%
88 | Cl.OC(COCc1ccccc1)CN1CCN(Cc2ccc3c(c2)OCO3)CC1 (centres unmarked) | -0.707%
89 | O=C(Cn1nnc2ccccc2c1=O)NCc1ccco1 | 5.88%
